# “And” between values parts separate entries of the source, which are not always exact repeats. Equal values may be shown once. This list was built around the results that the source calls inconclusive (neither active nor inactive); the mix of calls is not that of the screen. Where the call is inconclusive, the potency comes from a doubtful curve fit. The source made the active and inactive calls. Calls follow the shape of the dose curve; as a rule, active = well fitted cell-killing curve with a large enough effect; inconclusive = small, poorly fitted or top-dose-only effect; inactive = no such curve, though single readings can be large or run the other way.
# Experiment: qHTS of pediatric cancer cell lines to identify multiple opportunities for drug repurposing: Primary screen for LAN-5 cells (AID 1347100)
# Conditions: LAN-5 neuroblastoma viability, CellTiter-Glo luminescence, 48 h; activity change, negative = cytotoxic: at 46 µM (top of the series)
# Text: Drug repurposing or repositioning has been offered as a strategy for drug development in oncology programs. This approach has special potential for childhood cancers and other rare or orphan diseases, where the expected return on new drug development has been a disincentive to pharmaceuticals.
# In this project we exploit the poly-pharmacology of drugs to discover new indications via phenotypic screening of a panel of 19 well-characterized cell lines derived from solid tumors seen in children and adolescents. The goal is to identify approved drugs with previously unrecognized anticancer properties that has the potential to reveal new mechanisms and biological processes involved in carcinogenesis or drug resistance. We employed a titration-based paradigm (quantitative high-throughput screening or qHTS), where all compounds were tested at multiple concentrations for their effect on cell viability. Concentration-response curves (CRCs) were derived directly from the primary screen, and both potency and efficacy values were used to identify compounds with robust bioactivity profiles. We screened the NIH Chemical Genomics Center (NCGC) Pharmaceutical Collection (NPC) and Mechanism Interrogation Plate (MIPE) small molecule collections of approved and investigational compounds against these cell lines; and measured metabolically active cells after 48 hours of compound treatment as a proxy for cell viability.
# Assay Submitter: Nathalia J. Martinez, National Center for Advancing Translational Sciences, National Institutes of Health, Rockville, MD, USA; email: natalia.martinez@nih.gov
# [1] Shen, M et al. Quantitative high-throughput phenotypic screening of pediatric cancer cell lines identifies multiple opportunities for drug repurposing. Oncotarget 2017 Dec 19;9(4):4758-4772. PMID 29435139.
# The cells were obtained from University of North Carolina (UNC), Pediatric Preclinical Testing Program (PPT), and Coriell Institute (CI).
# qHTS cell viability assay:
# Cells were assayed in growth media at a density of 500-1,000 cells/well. Five microliters of cells were dispensed into 1,536-well, white, solid-bottom, TC-treated plates (Greiner Bio One) using a multidrop dispenser and incubated at 37 degrees C, 5% CO2, under a humidified atmosphere for 5 hours. Twenty-three nanoliters of compounds and controls (neutral control DMSO or positive control bortezomib at final concentration of 2.3 µM) were subsequently transferred by Kalypsys pintool. For primary screens, the MIPE collection was tested at 11-point dilutions (final concentrations range from 0.78 nM to 46 µM) and the NPC collection at 8-point dilutions (final concentrations range from 0.59 nM to 46 µM). Compounds tested in follow-up screens were assayed at 11-point dilutions. Cells were incubated for 48 hours, followed by addition of 3 µL of CellTiter-Glo (Promega). After a 15 min incubation at room temperature, samples were analyzed for luminescence intensity using a ViewLux High-throughput CCD imager equipped with clear filters.
# Potency is read from the fitted curve at half-maximal effect; tags tell the direction and shape of the fitted curve.
Compound,Potency,"activity change, negative = cytotoxic"
Nc1ccc(O)c([N+](=O)[O-])c1,"inconclusive: 24.3 µM [cytotoxic, partial curve]",–
COC(=O)C1=C(C)NC(C)=C(C(=O)OCC(C)C)C1c1ccccc1[N+](=O)[O-] (stereo not given),"inconclusive: 23.7 µM [cytotoxic, single point]",–
CC1=C(CC(=O)O)c2cc(F)ccc2/C1=C\c1ccc(S(C)=O)cc1 (stereo not given),–,inactive: 15.7%
CC(C)(C)c1ccc(C(=O)CCCN2CCC(OC(c3ccccc3)c3ccccc3)CC2)cc1,"inconclusive: 23.7 µM [cytotoxic, single point]",–
O=C(Nc1ccccc1)OCC(CN1CCCCC1)OC(=O)Nc1ccccc1 (stereo not given),"inconclusive: 10.6 µM [cytotoxic, partial curve, poor fit]",–
O=S1(=O)c2cccc3cccc(c23)N1CCCN1CCN(c2ccc(F)cc2)CC1,"inconclusive: 15 µM [cytotoxic, partial curve]",–
Cc1cnc(Nc2ccc(OCCN3CCCC3)cc2)nc1Nc1cccc(S(=O)(=O)NC(C)(C)C)c1,–,inactive: -16.1%
COc1ccc2cc([C@H](C)C(=O)O)ccc2c1,inactive,–
COc1cc(Oc2ccnc3cc(OC)c(OC)cc23)ccc1NC(=O)NC(C)c1nccs1 (stereo not given),"inconclusive: 9.35 µM [cytotoxic, full curve]",–
Oc1ccc(C=Cc2cc(O)cc(O)c2)cc1,"inconclusive: 37.2 µM [cytotoxic, single point]",–
O=C(CS)Nc1ccccc1,"inconclusive: 21.1 µM [cytotoxic, partial curve, poor fit]",–
N=c1ccn2c(n1)O[C@H]1[C@@H](O)[C@@H](CO)O[C@H]12,active: 3.32 µM,–
CC1(C)OC2=C(C(=O)c3ccccc3C2=O)[C@H](NCc2ccccc2)[C@H]1O,active: 5.26 µM,–
CCCCCNC(=O)N1CCC(CN(Cc2ccc(Cl)cc2)Cc2ccc([N+](=O)[O-])s2)C1 (stereo not given),"inconclusive: 18.7 µM [cytotoxic, partial curve, poor fit]",–
C=CC(=O)Nc1cc2c(Nc3ccc(F)c(Cl)c3)ncnc2cc1C#CC(C)(C)N1CCN(C)CC1,active: 2.96 µM,–
O=C(NNC(=O)c1ccc(CNS(=O)(=O)c2ccc(F)c(Cl)c2)cc1)c1ccccc1,–,inactive: 0.0558%
Nc1ccccc1N,active: 17.2 µM,–
CS(=O)c1ccc(-c2nc(-c3ccc(F)cc3)c(-c3ccncc3)[nH]2)cc1 (stereo not given),"inconclusive: 48.1 µM [cytotoxic, single point]",–
CCc1nn(CCCN2CCN(c3cccc(Cl)c3)CC2)c(=O)n1CCOc1ccccc1,"inconclusive: 10.6 µM [cytotoxic, partial curve]",–
O=C1NC(=O)C(c2ccccc2[N+](=O)[O-])=C1Nc1ccc(O)c(Cl)c1,"inconclusive: 33.2 µM [cytotoxic, single point]",–

Compound,Potency,"activity change, negative = cytotoxic"
Nc1ccc(C(=O)Oc2ccccc2)c(O)c1,–,inactive: -1.82%
Cc1c(NC(=O)c2ccc(C(C)(C)C)cc2)cccc1-c1cn(C)c(=O)c(Nc2ccc(C(=O)N3CCOCC3)cc2)n1,"inconclusive: 33.2 µM [cytotoxic, partial curve, poor fit]",–
Nc1nccc(Oc2ccc(NC(=O)c3c[nH]cc(-c4ccc(F)cc4)c3=O)cc2F)c1Cl,active: 1.18 µM,–
O=c1cc(-c2ccccc2)oc2cc(O)c(O)c(O)c12,"inconclusive: 37.2 µM [cytotoxic, single point]",–
COC(=O)Nc1nc2ccc(Sc3ccccc3)cc2[nH]1,"inconclusive: 33.5 µM [cytotoxic, single point] and active: 1.32 µM",–
CCCCCCCCOc1ccccc1C(=O)Nc1ccc(C(=O)OCC[N+](C)(CC)CC)cc1,"inconclusive: 11.9 µM [cytotoxic, partial curve, poor fit]",–
CCOC1OC(=O)C[C@H]1NC(=O)[C@@H]1CCCN1C(=O)[C@@H](NC(=O)c1ccc(N)c(Cl)c1)C(C)(C)C (stereo not given in full),active: 0.833 µM,–
CN(C)c1ccc(Nc2nc(N)n(C(=O)c3c(F)cccc3F)n2)cc1,active: 0.833 µM,–
CC(O)=C(C#N)C(=O)Nc1ccc(C(F)(F)F)cc1,–,inactive: -13.6%
CCCCCN=C(N)NN=Cc1c[nH]c2ccc(OC)cc12,"inconclusive: 3.72 µM [cytotoxic, full curve]",–
Cc1ccc(C(=O)Nc2ccc(S(=O)(=O)O)c3cc(S(=O)(=O)O)cc(S(=O)(=O)O)c23)cc1NC(=O)c1cccc(NC(=O)Nc2cccc(C(=O)Nc3cc(C(=O)Nc4ccc(S(=O)(=O)O)c5cc(S(=O)(=O)O)cc(S(=O)(=O)O)c45)ccc3C)c2)c1,"inconclusive: 14.8 µM [cytotoxic, partial curve, poor fit]",–
O=C1c2c(O)cc(O)cc2O[C@H](c2cc(O)c(O)c(O)c2)[C@H]1O,active: 26.4 µM,–
O=Cc1ccc(O)c(O)c1O,"inconclusive: 33.5 µM [cytotoxic, single point]",–
O=C1c2c(O)ccc(O)c2C(=O)c2c(NCCNCCO)ccc(NCCNCCO)c21,"inconclusive: 0.0237 µM [cytotoxic, full curve, poor fit]",–
CCN1CCC(n2cc(CNc3cc(Cl)c4ncc(C#N)c(Nc5ccc(F)c(Cl)c5)c4c3)nn2)CC1,active: 14.8 µM,–
CO[C@H]1C(=O)[C@]2(C)[C@@H](OC)C[C@H]3OC[C@@]3(OC(C)=O)[C@H]2[C@H](OC(=O)c2ccccc2)[C@]2(O)C[C@H](OC(=O)[C@H](O)[C@@H](NC(=O)OC(C)(C)C)c3ccccc3)C(C)=C1C2(C)C,active: 0.001 µM,–
N=C(N)N,–,inactive: 14.6%
COC(=O)C1=C(C)NC(C)=C(C(=O)OCCN2CCN(C(c3ccccc3)c3ccccc3)CC2)C1c1cccc([N+](=O)[O-])c1 (stereo not given),"inconclusive: 29.9 µM [cytotoxic, single point]",–
COc1cc2c(cc1OC)CN(CCc1ccc(NC(=O)c3cc(OC)c(OC)cc3NC(=O)c3cnc4ccccc4c3)cc1)CC2,"inconclusive: 14.8 µM [cytotoxic, partial curve, poor fit]",–
COc1cc2c(Oc3ccc(NC(=O)C4(C(=O)Nc5ccc(F)cc5)CC4)cc3F)ccnc2cc1OCCCN1CCOCC1,active: 0.372 µM,–

# From PubChem BioAssay (NCATS)
